Measured values: ChEMBL document CHEMBL4888484, “Replenishing the malaria drug discovery pipeline: Screening and hit evaluation of the MMV Hit Generation Library 1 (HGL1) against asexual blood stage Plasmodium falciparum ,using a nano luciferase reporter read-out” (2022)
Hit rate of the full screen: of about 150,000 compounds, about 540 (0.36%) showed an effect of 50% or more. This is one part of the list.

These compounds were tested on Plasmodium falciparum (assay: Primary screen in NF54 nanoGlo assay, in single point, at 2uM, 72h; a lower Z score goes with more inhibition). Details: timepoint 72 hour.
Format: functional, Erythrocyte

For O=C(C[C@H]1CCOC1)NC1Cc2ccccc2C1, which “% Inhibition” value is on record?
The value was -14%.

What about the Z score of the same compound?
The Z score was 1.4.

With CN1CCCC[C@H]1C(=O)N(CCCC(=O)O)Cc1ccccc1 as the compound, how does the “% Inhibition” value read?
Its value is 8%.

What about the Z score of the same compound?
The Z score was -1.31.

With O=C(CN1CCC(O)CC1)N1CCC(c2ccccc2)=N1 as the compound, how does the “% Inhibition” value read?
The value was -5%.

What about the Z score of the same compound?
Its Z score is 1.01.

Which results are given for Nc1c(C(=O)O)noc1C(=O)c1ccccc1?
% Inhibition: -5%; Z score: 0.67

O=C(c1ccc(Cl)cc1Cl)N1CC(c2nc(C3CC3)no2)C1 was tested. Which “% Inhibition” value did it give?
The value was -15%.

What about the Z score of the same compound?
Its Z score is 2.76.

Which results are given for Clc1ccc(CN2CC[C@H](C3CCN(c4ncnc5[nH]ccc45)CC3)C2)cc1?
% Inhibition: -8%; Z score: 0.7

Which results are given for Cn1c(C(=O)N2CC[C@H](N)C2)ccc1-c1ccccc1Br?
% Inhibition: 0%; Z score: 0.05

Which results are given for O=C(O)[C@@]1(C/C=C/c2ccccc2)CCCN(c2ncnc3c2CCC3)C1?
% Inhibition: -15%; Z score: 1.51

How did the “% Inhibition” value turn out when COCC(NC(=O)NCCc1ccc2[nH]ccc2c1)C1CCCO1 (stereo not drawn) was run?
Its value is -6%.

What about the Z score of the same compound?
The Z score was 0.8.

Which “% Inhibition” value does the source give for NC(=O)c1cccc(CN[C@H]2CCN(c3ccc(F)c(Cl)c3)C2)c1 here?
The value was 0%.

And the Z score?
The Z score was 0.

Which results are given for O=C1CN(C(=O)c2cc(O)nc3ccccc23)c2ccccc2N1?
% Inhibition: -1%; Z score: 0.19

Which results are given for Cc1nc(C(C)(C)N2CCOCC2)n(-c2ccc(Cl)cc2C)n1?
% Inhibition: -6%; Z score: 0.73

How did the “% Inhibition” value turn out when O=C(Nc1cc(Cl)cc(Cl)c1)c1ccc2c3c(cccc13)CC2 was run?
The value was 5%.

What about the Z score of the same compound?
Its Z score is -0.71.

For Cc1ccc(Cl)c(OCCN(C)C)c1C, which “% Inhibition” value is on record?
The value was -3%.

What about the Z score of the same compound?
The Z score was 0.6.

CC[C@H](NC(=O)NCCC1(C)OCCO1)c1ccc(C)cc1 was tested. Which “% Inhibition” value did it give?
Its value is -8%.

What about the Z score of the same compound?
The Z score was 0.86.

How did the “% Inhibition” value turn out when O=C(CC1CC2CCC1C2)N1CCN(c2cccc(C(F)(F)F)c2)CC1 (stereo not drawn) was run?
The value was 2%.

And the Z score?
The Z score was -0.23.

With CN(C)c1cc2c(cc1NC(=O)N1CCC3(CCO3)CC1)n(C)c(=O)n2C as the compound, how does the “% Inhibition” value read?
The value was 5%.

And the Z score?
The Z score was -0.78.

Cc1nsc(N2CCC[C@H](C)CC2)n1 was tested. Which “% Inhibition” value did it give?
Its value is 4%.

What about the Z score of the same compound?
Its Z score is -0.68.

Which “% Inhibition” value does the source give for Cc1ccc(C(=O)NC[C@@H]2CN(C)C(=O)[C@H](c3ccccc3)N2Cc2cccnc2)s1 here?
The value was -4%.

What about the Z score of the same compound?
Its Z score is 0.54.

What does the source list for Cc1ccccc1-n1nc(CC(C)C)nc1CC[C@H](C)N1CCN(C)CC1?
% Inhibition: 2%; Z score: -0.24

Cc1cccc(-n2ncc3c(N4CCN([C@@H](c5ccccc5)c5ccc(Cl)cc5)CC4)ncnc32)c1 was tested. Which “% Inhibition” value did it give?
Its value is -2%.

What about the Z score of the same compound?
The Z score was 0.23.

Which results are given for CC(NCC(C)(O)c1ccc(F)cc1)c1ccc(-n2cnnn2)cc1 (stereo not drawn)?
% Inhibition: -2%; Z score: 0.21

With O=C(Cc1ccc(Br)cc1)Nc1nnc(C2CC2)s1 as the compound, how does the “% Inhibition” value read?
Its value is 0%.

And the Z score?
The Z score was 0.03.

For CO[C@H]1CCN(C(=O)c2cnnn2-c2cccc(Cl)c2Cl)C1, which “% Inhibition” value is on record?
The value was -12%.

And the Z score?
The Z score was 2.23.
